# Results reported in PMC12820563, “FoxP3 forms a head-to-head dimer in vivo and stabilizes its multimerization on adjacent microsatellites”.
# The list shows a part of the results.
# Biological target: T1, MBP-FoxP1dN (Mus musculus, UniProt P58462 326-579)
# T1 sequence: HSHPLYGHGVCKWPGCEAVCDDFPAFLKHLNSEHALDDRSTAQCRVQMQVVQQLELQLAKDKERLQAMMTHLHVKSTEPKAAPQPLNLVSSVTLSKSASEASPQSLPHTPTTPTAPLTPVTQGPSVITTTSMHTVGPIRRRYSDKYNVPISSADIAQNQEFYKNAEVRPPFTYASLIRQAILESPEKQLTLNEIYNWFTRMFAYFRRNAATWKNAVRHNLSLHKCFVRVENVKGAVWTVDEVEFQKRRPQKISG
# Test: PD-seq (MBP pull-down with sequencing); 20 mM Tris-HCl pH 7.5, 100 mM NaCl, 1.5 mM MgCl2, 0.4 uM protein, 0.1 uM dsDNA library, 30 min, room temperature, amylose pull-down; high values mean tight binding
# Conditions: protein: recombinant; tags: His6-MBP; chain copies: 2; dsDNA, one strand shown
# Summary of the method: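 A degenerate double-stranded DNA library, filled in with Klenow, was added at 0.1 µM to 0.4 µM His6-MBP-tagged mouse FoxP3 or FoxP1 fragment lacking the N-terminus, expressed in E. coli. Incubation lasted 30 min at room temperature in Tris pH 7.5 buffer with NaCl and MgCl2, after which complexes were collected on amylose resin, washed three times, digested with proteinase K to free the DNA, barcoded by PCR and sequenced by Illumina. Binding is the pooled-replicate reads-per-million enrichment of pull-down over input.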
row,Sequence,binding signal
1,GATGATTGTTCTCCCAGCTGATGAATTTATGACTTCGAGTAAACAAATTTTCCTAATCTTTCTGTTCAAGCGCCATCTAC,1.13 RPM ratio (pull-down/input)
2,GATGATTGTTCTCCCAGCTGATGAATTTACCAGTTCGAGTAAACAAATTTTCCTAATCTTTCTGTTCAAGCGCCATCTAC,1.22 RPM ratio (pull-down/input)
3,GATGATTGTTCTCCCAGCTGATGAATTTCAGTCGTCGAGTAAACAAATTTTCCTAATCTTTCTGTTCAAGCGCCATCTAC,0.767 RPM ratio (pull-down/input)
4,GATGATTGTTCTCCCAGCTGATGAATTTCTAGTATCGAGTAAACAAATTTTCCTAATCTTTCTGTTCAAGCGCCATCTAC,0.933 RPM ratio (pull-down/input)
5,GATGATTGTTCTCCCAGCTGATGAATTCACGCCATCGAGTAAACAAATTTTCCTAATCTTTCTGTTCAAGCGCCATCTAC,1.01 RPM ratio (pull-down/input)
6,GATGATTGTTCTCCCAGCTGATGAATTTGTTTAGTCGAGTAAACAAATTTTCCTAATCTTTCTGTTCAAGCGCCATCTAC,2.24 RPM ratio (pull-down/input)
7,GATGATTGTTCTCCCAGCTGATGAATTAGAGCGTTCGAGTAAACAAATTTTCCTAATCTTTCTGTTCAAGCGCCATCTAC,0.924 RPM ratio (pull-down/input)
8,GATGATTGTTCTCCCAGCTGATGAATTAGCCCTTTCGAGTAAACAAATTTTCCTAATCTTTCTGTTCAAGCGCCATCTAC,0.827 RPM ratio (pull-down/input)
9,GATGATTGTTCTCCCAGCTGATGAATTACCGAAGTCGAGTAAACAAATTTTCCTAATCTTTCTGTTCAAGCGCCATCTAC,0.924 RPM ratio (pull-down/input)
10,GATGATTGTTCTCCCAGCTGATGAATTTATAAGATCGAGTAAACAAATTTTCCTAATCTTTCTGTTCAAGCGCCATCTAC,1.13 RPM ratio (pull-down/input)
11,GATGATTGTTCTCCCAGCTGATGAATTAATCTATTCGAGTAAACAAATTTTCCTAATCTTTCTGTTCAAGCGCCATCTAC,0.999 RPM ratio (pull-down/input)
12,GATGATTGTTCTCCCAGCTGATGAATTAGACCTGTCGAGTAAACAAATTTTCCTAATCTTTCTGTTCAAGCGCCATCTAC,0.889 RPM ratio (pull-down/input)
13,GATGATTGTTCTCCCAGCTGATGAATTGCCTGATTCGAGTAAACAAATTTTCCTAATCTTTCTGTTCAAGCGCCATCTAC,0.995 RPM ratio (pull-down/input)
14,GATGATTGTTCTCCCAGCTGATGAATTTCTGGTCTCGAGTAAACAAATTTTCCTAATCTTTCTGTTCAAGCGCCATCTAC,0.782 RPM ratio (pull-down/input)
15,GATGATTGTTCTCCCAGCTGATGAATTATATACATCGAGTAAACAAATTTTCCTAATCTTTCTGTTCAAGCGCCATCTAC,1.43 RPM ratio (pull-down/input)
16,GATGATTGTTCTCCCAGCTGATGAATTATCATGCTCGAGTAAACAAATTTTCCTAATCTTTCTGTTCAAGCGCCATCTAC,0.994 RPM ratio (pull-down/input)
17,GATGATTGTTCTCCCAGCTGATGAATTTAGGGCTTCGAGTAAACAAATTTTCCTAATCTTTCTGTTCAAGCGCCATCTAC,0.889 RPM ratio (pull-down/input)
18,GATGATTGTTCTCCCAGCTGATGAATTTTCTCCGTCGAGTAAACAAATTTTCCTAATCTTTCTGTTCAAGCGCCATCTAC,0.914 RPM ratio (pull-down/input)
19,GATGATTGTTCTCCCAGCTGATGAATTCGAGTAATCGAGTAAACAAATTTTCCTAATCTTTCTGTTCAAGCGCCATCTAC,1.4 RPM ratio (pull-down/input)
20,GATGATTGTTCTCCCAGCTGATGAATTGGCCGCGTCGAGTAAACAAATTTTCCTAATCTTTCTGTTCAAGCGCCATCTAC,0.925 RPM ratio (pull-down/input)
21,GATGATTGTTCTCCCAGCTGATGAATTCGTTTGATCGAGTAAACAAATTTTCCTAATCTTTCTGTTCAAGCGCCATCTAC,0.923 RPM ratio (pull-down/input)

row,Sequence,binding signal
1,GATGATTGTTCTCCCAGCTGATGAATTACTGGCCTCGAGTAAACAAATTTTCCTAATCTTTCTGTTCAAGCGCCATCTAC,0.886 RPM ratio (pull-down/input)
2,GATGATTGTTCTCCCAGCTGATGAATTGCCTCGATCGAGTAAACAAATTTTCCTAATCTTTCTGTTCAAGCGCCATCTAC,0.939 RPM ratio (pull-down/input)
3,GATGATTGTTCTCCCAGCTGATGAATTGGTTATCTCGAGTAAACAAATTTTCCTAATCTTTCTGTTCAAGCGCCATCTAC,1 RPM ratio (pull-down/input)
4,GATGATTGTTCTCCCAGCTGATGAATTGATGATTTCGAGTAAACAAATTTTCCTAATCTTTCTGTTCAAGCGCCATCTAC,1.34 RPM ratio (pull-down/input)
5,GATGATTGTTCTCCCAGCTGATGAATTATGGTGCTCGAGTAAACAAATTTTCCTAATCTTTCTGTTCAAGCGCCATCTAC,0.966 RPM ratio (pull-down/input)
6,GATGATTGTTCTCCCAGCTGATGAATTGGAACTTTCGAGTAAACAAATTTTCCTAATCTTTCTGTTCAAGCGCCATCTAC,0.834 RPM ratio (pull-down/input)
7,GATGATTGTTCTCCCAGCTGATGAATTGGCACTTTCGAGTAAACAAATTTTCCTAATCTTTCTGTTCAAGCGCCATCTAC,0.943 RPM ratio (pull-down/input)
8,GATGATTGTTCTCCCAGCTGATGAATTGGCGTGATCGAGTAAACAAATTTTCCTAATCTTTCTGTTCAAGCGCCATCTAC,0.928 RPM ratio (pull-down/input)
9,GATGATTGTTCTCCCAGCTGATGAATTTCCTGAATCGAGTAAACAAATTTTCCTAATCTTTCTGTTCAAGCGCCATCTAC,0.927 RPM ratio (pull-down/input)
10,GATGATTGTTCTCCCAGCTGATGAATTAGAAAAGTCGAGTAAACAAATTTTCCTAATCTTTCTGTTCAAGCGCCATCTAC,0.926 RPM ratio (pull-down/input)
11,GATGATTGTTCTCCCAGCTGATGAATTTAGACTATCGAGTAAACAAATTTTCCTAATCTTTCTGTTCAAGCGCCATCTAC,1.16 RPM ratio (pull-down/input)
12,GATGATTGTTCTCCCAGCTGATGAATTAGACGGGTCGAGTAAACAAATTTTCCTAATCTTTCTGTTCAAGCGCCATCTAC,0.832 RPM ratio (pull-down/input)
13,GATGATTGTTCTCCCAGCTGATGAATTAATCGTCTCGAGTAAACAAATTTTCCTAATCTTTCTGTTCAAGCGCCATCTAC,0.872 RPM ratio (pull-down/input)
14,GATGATTGTTCTCCCAGCTGATGAATTTCTACCCTCGAGTAAACAAATTTTCCTAATCTTTCTGTTCAAGCGCCATCTAC,0.786 RPM ratio (pull-down/input)
15,GATGATTGTTCTCCCAGCTGATGAATTAGGGGTCTCGAGTAAACAAATTTTCCTAATCTTTCTGTTCAAGCGCCATCTAC,0.797 RPM ratio (pull-down/input)
16,GATGATTGTTCTCCCAGCTGATGAATTTTCTTGGTCGAGTAAACAAATTTTCCTAATCTTTCTGTTCAAGCGCCATCTAC,0.956 RPM ratio (pull-down/input)
17,GATGATTGTTCTCCCAGCTGATGAATTTTTTGCATCGAGTAAACAAATTTTCCTAATCTTTCTGTTCAAGCGCCATCTAC,1.45 RPM ratio (pull-down/input)
18,GATGATTGTTCTCCCAGCTGATGAATTGTGTGTTTCGAGTAAACAAATTTTCCTAATCTTTCTGTTCAAGCGCCATCTAC,1.57 RPM ratio (pull-down/input)
19,GATGATTGTTCTCCCAGCTGATGAATTGTCCTCATCGAGTAAACAAATTTTCCTAATCTTTCTGTTCAAGCGCCATCTAC,1.08 RPM ratio (pull-down/input)
20,GATGATTGTTCTCCCAGCTGATGAATTTCAAAGGTCGAGTAAACAAATTTTCCTAATCTTTCTGTTCAAGCGCCATCTAC,0.752 RPM ratio (pull-down/input)
21,GATGATTGTTCTCCCAGCTGATGAATTGGACGGCTCGAGTAAACAAATTTTCCTAATCTTTCTGTTCAAGCGCCATCTAC,0.79 RPM ratio (pull-down/input)

row,Sequence,binding signal
1,GATGATTGTTCTCCCAGCTGATGAATTCCATGAATCGAGTAAACAAATTTTCCTAATCTTTCTGTTCAAGCGCCATCTAC,0.935 RPM ratio (pull-down/input)
2,GATGATTGTTCTCCCAGCTGATGAATTGCTTCGCTCGAGTAAACAAATTTTCCTAATCTTTCTGTTCAAGCGCCATCTAC,0.992 RPM ratio (pull-down/input)
3,GATGATTGTTCTCCCAGCTGATGAATTGGAGATTTCGAGTAAACAAATTTTCCTAATCTTTCTGTTCAAGCGCCATCTAC,0.827 RPM ratio (pull-down/input)
4,GATGATTGTTCTCCCAGCTGATGAATTTAGCCCGTCGAGTAAACAAATTTTCCTAATCTTTCTGTTCAAGCGCCATCTAC,0.795 RPM ratio (pull-down/input)
5,GATGATTGTTCTCCCAGCTGATGAATTGACACGCTCGAGTAAACAAATTTTCCTAATCTTTCTGTTCAAGCGCCATCTAC,1.21 RPM ratio (pull-down/input)
6,GATGATTGTTCTCCCAGCTGATGAATTTCACATCTCGAGTAAACAAATTTTCCTAATCTTTCTGTTCAAGCGCCATCTAC,0.829 RPM ratio (pull-down/input)
7,GATGATTGTTCTCCCAGCTGATGAATTAGATGCATCGAGTAAACAAATTTTCCTAATCTTTCTGTTCAAGCGCCATCTAC,1.66 RPM ratio (pull-down/input)
8,GATGATTGTTCTCCCAGCTGATGAATTTTACATCTCGAGTAAACAAATTTTCCTAATCTTTCTGTTCAAGCGCCATCTAC,0.88 RPM ratio (pull-down/input)
9,GATGATTGTTCTCCCAGCTGATGAATTAACTAAATCGAGTAAACAAATTTTCCTAATCTTTCTGTTCAAGCGCCATCTAC,1.12 RPM ratio (pull-down/input)
10,GATGATTGTTCTCCCAGCTGATGAATTCTTTCACTCGAGTAAACAAATTTTCCTAATCTTTCTGTTCAAGCGCCATCTAC,0.923 RPM ratio (pull-down/input)
11,GATGATTGTTCTCCCAGCTGATGAATTGATGCAGTCGAGTAAACAAATTTTCCTAATCTTTCTGTTCAAGCGCCATCTAC,1.41 RPM ratio (pull-down/input)
12,GATGATTGTTCTCCCAGCTGATGAATTAACACCATCGAGTAAACAAATTTTCCTAATCTTTCTGTTCAAGCGCCATCTAC,1.2 RPM ratio (pull-down/input)
13,GATGATTGTTCTCCCAGCTGATGAATTTTTTACGTCGAGTAAACAAATTTTCCTAATCTTTCTGTTCAAGCGCCATCTAC,0.984 RPM ratio (pull-down/input)
14,GATGATTGTTCTCCCAGCTGATGAATTGGCCCCATCGAGTAAACAAATTTTCCTAATCTTTCTGTTCAAGCGCCATCTAC,0.877 RPM ratio (pull-down/input)
15,GATGATTGTTCTCCCAGCTGATGAATTGCTTTTATCGAGTAAACAAATTTTCCTAATCTTTCTGTTCAAGCGCCATCTAC,1.26 RPM ratio (pull-down/input)
16,GATGATTGTTCTCCCAGCTGATGAATTTAGTATATCGAGTAAACAAATTTTCCTAATCTTTCTGTTCAAGCGCCATCTAC,1.29 RPM ratio (pull-down/input)
17,GATGATTGTTCTCCCAGCTGATGAATTGTTAAACTCGAGTAAACAAATTTTCCTAATCTTTCTGTTCAAGCGCCATCTAC,1.1 RPM ratio (pull-down/input)
18,GATGATTGTTCTCCCAGCTGATGAATTCCCCTGTTCGAGTAAACAAATTTTCCTAATCTTTCTGTTCAAGCGCCATCTAC,0.717 RPM ratio (pull-down/input)
19,GATGATTGTTCTCCCAGCTGATGAATTTGGGTAGTCGAGTAAACAAATTTTCCTAATCTTTCTGTTCAAGCGCCATCTAC,0.934 RPM ratio (pull-down/input)
20,GATGATTGTTCTCCCAGCTGATGAATTGTTCGTCTCGAGTAAACAAATTTTCCTAATCTTTCTGTTCAAGCGCCATCTAC,1.01 RPM ratio (pull-down/input)
21,GATGATTGTTCTCCCAGCTGATGAATTGAACAGCTCGAGTAAACAAATTTTCCTAATCTTTCTGTTCAAGCGCCATCTAC,0.782 RPM ratio (pull-down/input)
